# About 64,000 (15%) of roughly 420,000 compounds were called active. Inconclusive results, whose numbers are uncertain, are shown with a selection of clear calls. The call rests on the fitted dose curve; in most records, active means well fitted inhibition curve with a large enough effect; inconclusive means small, poorly fitted or top-dose-only effect; inactive means flat fitted curve, though single readings scatter. No potency is given beside an inconclusive call; the fits are too rough.
# Experiment: qHTS for Inhibitors of human tyrosyl-DNA phosphodiesterase 1 (TDP1): qHTS in cells in absence of CPT; further: nearly all actives have a fitted effect of over 55% in size
# Conditions: DT40 Tdp1-/- hTDP1 cells, no CPT, ATP luminescence, 48 h; activity change, negative = growth inhibition: at 46.2 µM (top of the series) unless noted
# How it was run: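 Chicken DT40 Tdp1-/- cells stably complemented with human TDP1 were seeded at 400 cells/well with DMSO in place of 20 nM camptothecin. After compound pinning, cells grew at least 48 hr at 37 °C; viability read by CellTiter-Glo luminescence.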
# On the % scale 0 is the no-effect control and ±100 the full control effect; potency means the concentration at half of the fitted maximal effect; tags describe the fitted curve by direction and shape.
SMILES,Potency,"activity change, negative = growth inhibition"
CCCN(Cc1nnc(-c2cccs2)o1)C(=O)CN1C(=O)NC2(CCCCC2C)C1=O (stereo not drawn),inactive,
CCOC(=O)c1ccc(Nc2ncnc3c2cnn3-c2cccc(Cl)c2)cc1,,inconclusive: -30.4% [inhibitor]
COc1ccc(C(=O)N(c2ccc(OC)cc2)S(=O)(=O)c2cccs2)cc1,"inconclusive [inhibitor, partial curve]",
Cc1cc(=O)cc(C)n1-c1ccc(Cl)c(Cl)c1,inactive,
COc1ccc2[nH]c(=O)c(CNc3cccc(C)c3)cc2c1,active: 11.6 µM,
Cc1ccc(Nc2nc(N)nc(CN3CCN(Cc4ccc5c(c4)OCO5)CC3)n2)c(C)c1,"inconclusive [inhibitor, single point]",
CC1CCCCN1C(=O)CCn1c(=O)oc2ccccc21 (stereo not drawn),inactive,
COC(=O)C1C(=O)c2c([nH]c(C(=O)OC3CCCCCC3)c2C)CC1C (stereo not drawn),"inconclusive [inhibitor, partial curve, poor fit]",
Fc1cccc(NC(=S)NC2CCCCCCC2)c1,"inconclusive [inhibitor, single point]",
C=C1CCN([C@@H](Cc2ccccc2)C(=O)NCc2ccccc2)S(=O)(=O)c2ccccc21,"inconclusive [inhibitor, single point]",
S=c1[nH]cnc2sc(-c3ccccc3)cc12,"inconclusive [inhibitor, single point]",
O=S(=O)(NCCS(=O)(=O)N1CCN(c2ccccc2F)CC1)c1ccc(Cl)cc1,"inconclusive [inhibitor, partial curve]",
CCOC(=O)Cn1nnnc1CN(Cc1ccccc1)Cc1cc2cc(CC)ccc2[nH]c1=O,"inconclusive [inhibitor, single point]",
O=C(COC(=O)c1ccc(Cl)cc1O)NC(=O)C1CCCCC1,inactive,
Cc1ccc(C(=O)NC(C(=O)NC2CCCC2)c2ccccc2)cc1 (stereo not drawn),"inconclusive [inhibitor, partial curve]",
CN1CCC(C)(C(=O)Nc2cccc(Oc3ccccc3)c2)C1 (stereo not drawn),"inconclusive [inhibitor, single point]",
Cc1ccc(C)c(C(O)c2ncc(-c3ccc4ccccc4c3)[nH]2)c1 (stereo not drawn),"inconclusive [inhibitor, single point]",
CCCCC(c1nnnn1CC1CCCO1)N1CCN(c2nc3ccccc3s2)CC1 (stereo not drawn),"inconclusive [inhibitor, single point]",
Cc1ccc(C(=O)N2CCc3ccccc32)cc1C,"inconclusive [inhibitor, single point]",
Cc1cccc(N2CCN(C(=O)C3CCCN(S(=O)(=O)c4cnc[nH]4)C3)CC2C)c1 (stereo not drawn),"inconclusive [inhibitor, partial curve]",
CCCCc1ccccc1NC(=S)NC1CCCC1,active: 18.4 µM,
CCOC(=O)C1(Cc2ccccc2)CCN(Cc2ccc3cc(NC(C)=O)ccc3n2)CC1,"inconclusive [inhibitor, partial curve, poor fit]",
CCN(CC)c1ccc(C(=O)N2CCC(c3c[nH]c4ccccc34)(c3c[nH]c4ccccc34)CC2)cc1,"inconclusive [inhibitor, single point]",
CCOC(=O)C1(Cc2cccc(OC)c2)CCN(Cc2ccccc2OC)CC1,"inconclusive [inhibitor, single point]",
COCCn1c(=O)[nH]c2cc(C(=O)NCCN3CCN(c4ccccc4)CC3)ccc2c1=O,inactive,

SMILES,Potency,"activity change, negative = growth inhibition"
CCN(CCO)Cc1csc2c(Br)cccc12,"inconclusive [inhibitor, single point]",
Oc1c(C=NCc2ccncc2)sc2ccccc12,inactive,
Cc1ccc(N2C(=O)C(CC(=O)Nc3cccc(F)c3)N(CCc3ccncc3)C2=O)cc1 (stereo not drawn),inactive,
O=C(CN(C(=O)c1ccc(Cl)cc1)C1CCCCC1)Nc1ccc(Cl)c([N+](=O)[O-])c1,active: 14.6 µM,
COCCNC(=O)c1onc(CSc2ccccn2)c1C(=O)NCCOC,inactive,
CCOc1ccc(S(=O)(=O)N2CCCC2)c2ccccc12,"inconclusive [inhibitor, single point]",
COc1ccc(-c2nc3ccc(Br)cn3c2Cc2cccc(Cl)c2)cc1OC,active: 20.6 µM,
COc1ncc2ncc(=O)n(C)c2n1,inactive,
O=C(Nc1cccc(NC(=O)c2cccs2)c1)c1cccnc1,"inconclusive [inhibitor, partial curve, poor fit]",
CC(NS(=O)(=O)c1ccc(Br)cc1)C(=O)Nc1nc2ccccc2[nH]1 (stereo not drawn),"inconclusive [inhibitor, partial curve]",
Cc1nc2cc(NCc3cc([N+](=O)[O-])ccc3O)ccc2n1Cc1ccccc1,"inconclusive [inhibitor, partial curve, poor fit]",
Cc1cc(NC(=O)/C=C/c2ccc(F)cc2)n(-c2nc3ccccc3[nH]2)n1,active: 14.6 µM,
COc1cccc(NC(=O)c2ccc(NCCCN3CC(C)CC(C)C3)c([N+](=O)[O-])c2)c1 (stereo not drawn),"inconclusive [inhibitor, single point]",
O=C(CSc1nc2ccc([N+](=O)[O-])cc2[nH]1)NC1CCCCCC1,"inconclusive [inhibitor, single point]",
O=c1c2ccccc2nnn1Cc1ccc2ccccc2c1,inactive,
NC(=O)c1cc(-c2ccccc2)nc(N2CCCCCC2)n1,"inconclusive [inhibitor, partial curve]",
Cc1cccc(N2CC(C)Cn3c2nc2c3c(=O)n(CC(=O)OCc3ccccc3)c(=O)n2C)c1 (stereo not drawn),active: 13 µM,
CN1C(=O)[C@H]2[C@@H](/C=C/c3ccccc3)N3C(=O)CN(Cc4ccccn4)C(=O)[C@@]3(C)[C@H]2C1=O,inactive,
CCCCCCc1cc2cc(S(=O)(=O)c3ccc(Cl)cc3)c(=O)oc2cc1O,"inconclusive [inhibitor, single point]",
O=C(NCCc1ccccc1)C1CCCN1S(=O)(=O)c1ccc(F)cc1 (stereo not drawn),"inconclusive [inhibitor, single point]",
O=C(Nc1cc(N2CCOCC2)ncn1)c1ccc(F)cc1,active: 5.8 µM,
S=C(NC1CCCCC1)N1CCn2cccc2C1c1cccnc1 (stereo not drawn),"inconclusive [inhibitor, single point]",
CCN(CC)S(=O)(=O)c1cc(C(=O)Nc2cc(S(=O)(=O)N3CCOCC3)ccc2N2CCCC2)ccc1F,"inconclusive [inhibitor, single point]",
C=C(C)c1cccc(C(C)(C)NC(=O)NCCN(CC)CC)c1,inactive,
CC(c1nc2ccccc2[nH]1)n1c(=O)c(-c2cccnc2)nc2ccccc21 (stereo not drawn),"inconclusive [inhibitor, partial curve]",

SMILES,Potency,"activity change, negative = growth inhibition"
CCCCCCCCN1C(=O)[C@H](CC(=O)NCc2ccc(C)o2)C[C@@]2(C(=O)OC)CC(C)(C)CC=C12,active: 8.2 µM,
NC(=O)c1ccc(SCC(=O)OCC(=O)NC2CCCCCCC2)c([N+](=O)[O-])c1,inactive,
OCCNc1nc(Nc2ccc(O)cc2)nc2ccccc12,"inconclusive [inhibitor, single point]",
O=C(NCc1ccc(F)cc1F)c1cc(COc2c(F)cccc2F)on1,inactive,
Cc1cc(C)c(NC(=O)C2C3/C=C\CCCCC32)c(C)c1 (stereo not drawn),,inconclusive: -2.42% [inhibitor]
COc1ccc(-c2sc3cc(OC)ccc3c2-c2ccc(OCCN3CCCCC3)cc2)cc1,active: 5.8 µM,
COc1ccc(/C(C)=N/NC(=O)C2CC2)cc1,inactive,
CCCCC(=O)NC(c1ccc(Cl)cc1)c1ccc2cccnc2c1O (stereo not drawn),active: 1.16 µM,
COc1ccc(/C=C/C(=O)NC(C)CCc2ccccc2)cc1 (stereo not drawn),"inconclusive [inhibitor, single point]",
COc1ccccc1NC(=O)/C(=C/c1cccs1)NC(=O)c1ccco1,inactive,
CCc1ccc(NC(=O)Cn2c3ncccc3c(=O)n2-c2ccc(C)c(C)c2)cc1,"inconclusive [inhibitor, single point]",
CC(=O)c1c(C)nc(-c2ccccc2)nc1NC(=O)Cc1ccccc1,"inconclusive [inhibitor, single point]",
O=S(=O)(NC1CCCC1)c1cccc(-c2nnc(-c3ccccc3)o2)c1,"inconclusive [inhibitor, single point]",
Oc1ccc(-c2[nH]ncc2-c2cccc3cccnc23)c(O)c1,"inconclusive [inhibitor, partial curve]",
O=[N+]([O-])c1ccc2c(c1)C(=NO)c1cc(Cl)c(Cl)cc1-2,"inconclusive [inhibitor, single point]",
CN(C)c1ccnc(-n2cccc2/C=N/OCc2cccc(F)c2)c1C#N,"inconclusive [inhibitor, single point]",
O=C(Nc1ccccc1N1CCOCC1)c1cc2ccccc2o1,inactive,
CCC[C@H]1CN(c2ccccc2)C(=O)[C@@H]1CC(=O)NC,inactive,
O=c1c2ccccc2[nH]c(=S)n1C1CCCCC1,inactive,
CCCn1c(COc2ccc(C(=O)O)cc2)nc2ccccc21,inactive,
Nc1nnc(Cc2ccc(F)cc2)s1,inactive,
CCOC(=O)c1cccc(NC(=O)C2CCN(S(=O)(=O)c3cn(C)cn3)CC2)c1,inactive,
C/C(=N\NC(=O)COc1ccccc1F)c1cc2ccccc2o1,"inconclusive [inhibitor, single point]",
